# Assay results from patent US9133439B2, “Differentiation of human embryonic stem cells” (Janssen Biotech, Inc., priority 2009, dated 2015).
# Experiments:
# [1] = test system: NGN3 expression in differentiated H1 human embryonic stem cells; details: for NGN3 Intensity RATIO: ratio of NGN3 staining for well treated with individual compound relative to average staining in wells with DMSO alone; for NGN3 RANK: 2.5 μM compound in steps 3 and 4, with Trichostatin A, ordered ranking of top 16 hits
# [2] = test system: NKX6.1 expression in differentiated H1 human embryonic stem cells; details: for NKX6.1 Intensity RATIO: ratio of NKX6.1 staining for well treated with individual compound relative to average staining in wells with DMSO alone; for NKX6.1 RANK: 2.5 μM compound in steps 3 and 4, with Trichostatin A, ordered ranking of top 16 hits
# [3] = test system: NGN3 expression in differentiated H1 human embryonic stem cells; assay: Example 1: kinase inhibitor library screen, NGN3 expression by high content analysis after differentiation; format: cell-based; details: for NGN3 intensity RANK, Dose Stages 3&4 / NGN3 intensity RANK, Dose Stage 3 / NGN3 intensity RANK, Dose Stage 4: rank order among both kinase inhibitor libraries
# [4] = inhibitor dosed at stage 3 only, NGN3 total intensity as ratio to control, EMDII and BioMol kinase inhibitor libraries
# [5] = inhibitor dosed at stage 4 only, NGN3 total intensity as ratio to control, EMDII and BioMol kinase inhibitor libraries
# [6] = inhibitor dosed at stages 3 and 4, NGN3 total intensity as ratio to control, EMDII and BioMol kinase inhibitor libraries
# [7] = 2.5 μM compound during combined stages 3 and 4
# [8] = 2.5 μM compound during stage 3 alone
# [9] = 2.5 μM compound during stage 4 alone
SMILES,NGN3 Intensity RATIO [1],NKX6.1 Intensity RATIO [2],"NGN3 Intensity RATIO, Dose Stage 3 [3, 4]","NGN3 Intensity RATIO, Dose Stage 4 [3, 5]","NGN3 Intensity RATIO, Dose Stages 3 & 4 [3, 6]",also measured
CCCCCCCCCCCCCCCC(=O)OC(CC(=O)O)C[N+](C)(C)C.[Cl-] (racemic) [Palmitoyl-DL-carnitine Cl],0.99,1.19,1.06,0.97,0.82,–
Nc1ncnc2c1c(I)cn2[C@@H]1O[C@H](CO)[C@@H](O)[C@H]1O [5-Iodotubercidin],0.27,0.13,–,–,–,–
N#C/C(=C/c1ccc(O)c(O)c1)C(=O)NCc1ccccc1 [AG-490],–,–,–,–,–,NKX6.1 RANK [2]: 16
CC(C)(C)c1cc(/C=C(\C#N)C(N)=S)cc(C(C)(C)C)c1O [AG-879],0.72,0.39,0.99,0.77,0.53,–
O=C(Nc1cccc(Nc2nccc(Nc3cccc(C(F)(F)F)c3)n2)c1)C1CC1 [Aurora Kinase Inhibitor III],–,–,1.10,1.00,1.03,–
NC(=O)c1ccc2nc(-c3ccc(Oc4ccc(Cl)cc4)cc3)[nH]c2c1 [Chk2 Inhibitor II],–,–,1.23,1.00,1.11,–
COC(=O)/C=C/c1cc(O)ccc1O [Erbstatin analog],0.34,0.38,1.38,0.77,0.53,–
Cn1sc(=O)n(Cc2ccccc2)c1=O [GSK-3b Inhibitor I],–,–,1.03,0.97,0.89,–
COc1ccc(CNC(=O)Nc2ncc([N+](=O)[O-])s2)cc1 [GSK-3b Inhibitor VIII],–,–,1.17,0.85,0.60,–
Cl.Cl.O=S(=O)(NCCNC/C=C/c1ccc(Br)cc1)c1cccc2cnccc12 [H-89],–,–,–,–,–,NGN3 RANK [1]: 4; NKX6.1 RANK [2]: 3
"O=C(O)c1cc(NCc2cc(O)ccc2O)ccc1O [HDBA, 2-Hydroxy-5-(2,5-dihydroxybenzylamino)benzoic acid]",0.64,0.88,–,–,–,–
"O=P(O)(O)C(O)c1ccc2ccccc2c1 (stereo not shown) [HNMPA, Hydroxy-2-naphthalenylmethylphosphonic acid]",–,–,–,–,–,NGN3 RANK [1]: 16; NKX6.1 RANK [2]: 15
Cc1cc(O)c2c(=O)c3c(O)cc(O)c4c5c(O)cc(O)c6c(=O)c7c(O)cc(C)c8c1c2c(c34)c(c78)c65 [Hypericin],2.22,2.15,–,–,–,NGN3 RANK [1]: 2
N#CC(c1ccnc(NCCc2cccnc2)n1)c1nc2ccccc2s1 (stereo not shown) [JNK Inhibitor V],–,–,0.66,0.85,0.39,–
N#CC(=C(N)Sc1ccc(N)cc1)c1ccccc1C(F)(F)F [MEK1/2 Inhibitor],–,–,1.03,0.77,1.60,"NGN3 Intensity RATIO, Dose Stages 3 & 4 ([3]; 2.5 μM compound during combined stages 3 and 4, NGN3 staining intensity relative to DMSO vehicle wells): 1.60; NGN3 intensity RANK, Dose Stages 3&4 [3, 7]: 20; NGN3 Intensity RATIO, Dose Stage 3 ([3]; 2.5 μM compound during stage 3 alone, NGN3 staining intensity relative to DMSO vehicle wells): 1.03; NGN3 intensity RANK, Dose Stage 3 [3, 8]: 94; NGN3 Intensity RATIO, Dose Stage 4 ([3]; 2.5 μM compound during stage 4 alone, NGN3 staining intensity relative to DMSO vehicle wells): 0.77; NGN3 intensity RANK, Dose Stage 4 [3, 9]: 110"
N#C/C(=C(/N)Sc1ccccc1N)c1cccc(C(O)c2ccncc2)c1 (stereo not shown) [MEK Inhibitor I],–,–,0.74,0.85,0.91,–
O=S(=O)(c1cccc2c(I)cccc12)N1CCCNCC1 [ML-7],–,–,–,–,–,NKX6.1 RANK [2]: 12
Cl.O=S(=O)(c1cccc2c(Cl)cccc12)N1CCCNCC1 [ML-9],0.59,1.60,0.61,0.97,0.40,–
CO[C@@H]1[C@H](N(C)C(=O)c2ccccc2)C[C@H]2O[C@]1(C)n1c3ccccc3c3c4c(c5c6ccccc6n2c5c31)C(=O)NC4 [PKC-412],0.39,0.45,–,–,–,–
Cc1ccc(-c2nn(C(C)(C)C)c3ncnc(N)c23)cc1 [PP1],–,–,–,–,–,NGN3 RANK [1]: 12
CC(C)(C)n1nc(-c2ccc(Cl)cc2)c2c(N)ncnc21 [PP2],–,–,–,–,–,"NGN3 RANK [1]: 5; NKX6.1 RANK [2]: 7; NGN3 intensity RANK, Dose Stages 3&4 [3, 7]: 1; NGN3 intensity RANK, Dose Stage 3 [3, 8]: 8; NGN3 intensity RANK, Dose Stage 4 [3, 9]: 2"
CC(C)[C@H](CO)Nc1nc(Nc2cccc(Cl)c2)c2ncn(C(C)C)c2n1 [Purvalanol A],–,–,0.91,0.53,0.32,–
CS(=O)(=O)O.Cn1cc(C2=C(c3cn(CCCSC(=N)N)c4ccccc34)C(=O)NC2=O)c2ccccc21 [Ro 31-8220],0.30,0.48,–,–,–,–
Oc1ccc(-c2nc(-c3ccc(F)cc3)c(-c3ccncc3)[nH]2)cc1 [SB-202190],–,–,–,–,–,NGN3 RANK [1]: 13
C[S+]([O-])c1ccc(-c2nc(-c3ccc(F)cc3)c(-c3ccncc3)[nH]2)cc1 (stereo not shown) [SB-203580],–,–,–,–,–,NGN3 RANK [1]: 6; NKX6.1 RANK [2]: 4
Oc1c2ccccc2c2c3c(cccc13)N=N2 [SP 600125],1.09,1.67,–,–,–,–
CN[C@@H]1C[C@H]2O[C@@](C)([C@@H]1OC)n1c3ccccc3c3c4c(c5c6ccccc6n2c5c31)C(=O)NC4 [Staurosporine],0.30,0.17,–,–,–,–
N#Cc1cnc2cnc(NCc3cccnc3)cc2c1Nc1ccc(F)c(Cl)c1 [Tpl2 Kinase Inhibitor],–,–,0.99,0.97,0.96,–
N#CC(C#N)=Cc1cc(O)c(O)c(O)c1 [Tyrphostin 25],1.24,4.68,–,–,–,NKX6.1 RANK [2]: 5
COC[C@H]1OC(=O)c2coc3c2[C@@]1(C)C1=C(C3=O)[C@@H]2CCC(=O)[C@@]2(C)C[C@H]1OC(C)=O [Wortmannin],–,–,–,–,–,NGN3 RANK [1]: 9; NKX6.1 RANK [2]: 9
